The campaign covered roughly 350,000 compounds. About 31,000 (8.9%) were called active. This list was built around the results that the source calls inconclusive (neither active nor inactive); the mix of calls is not that of the screen. Calls follow the shape of the dose curve; as a rule, active = well fitted inhibition curve with a large enough effect; inconclusive = small, poorly fitted or top-dose-only effect; inactive = no such curve, though single readings can be large or run the other way. A potency beside an inconclusive call is a rough fit, not a confirmed value.
biological target: Histone-lysine N-methyltransferase EHMT2 (Homo sapiens) (UniProt Q96KQ7); test: qHTS Assay for Inhibitors of Histone Lysine Methyltransferase G9a; settings: G9a H3K9 monomethylation, AlphaScreen, 2 h; activity, negative = inhibition: at 59 µM (top of the series) unless noted; also: nearly all actives have a fitted effect of over 75% in size
In short: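 Using a bead-based AlphaScreen, monomethylated H3K9 product from 2 h room-temperature reactions (G9a 20 nM, peptide 500 nM, SAM 20 uM) was detected with 0.5 ug/mL rabbit anti-H3K9me1 antibody.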
% is scaled to controls: 0 for no effect and ±100 for the full control effect; potency is read from the fitted curve at half-maximal effect; tags tell the direction and shape of the fitted curve.

Chain of UniProt Q96KQ7 (Q96KQ7 whole entry, looked up): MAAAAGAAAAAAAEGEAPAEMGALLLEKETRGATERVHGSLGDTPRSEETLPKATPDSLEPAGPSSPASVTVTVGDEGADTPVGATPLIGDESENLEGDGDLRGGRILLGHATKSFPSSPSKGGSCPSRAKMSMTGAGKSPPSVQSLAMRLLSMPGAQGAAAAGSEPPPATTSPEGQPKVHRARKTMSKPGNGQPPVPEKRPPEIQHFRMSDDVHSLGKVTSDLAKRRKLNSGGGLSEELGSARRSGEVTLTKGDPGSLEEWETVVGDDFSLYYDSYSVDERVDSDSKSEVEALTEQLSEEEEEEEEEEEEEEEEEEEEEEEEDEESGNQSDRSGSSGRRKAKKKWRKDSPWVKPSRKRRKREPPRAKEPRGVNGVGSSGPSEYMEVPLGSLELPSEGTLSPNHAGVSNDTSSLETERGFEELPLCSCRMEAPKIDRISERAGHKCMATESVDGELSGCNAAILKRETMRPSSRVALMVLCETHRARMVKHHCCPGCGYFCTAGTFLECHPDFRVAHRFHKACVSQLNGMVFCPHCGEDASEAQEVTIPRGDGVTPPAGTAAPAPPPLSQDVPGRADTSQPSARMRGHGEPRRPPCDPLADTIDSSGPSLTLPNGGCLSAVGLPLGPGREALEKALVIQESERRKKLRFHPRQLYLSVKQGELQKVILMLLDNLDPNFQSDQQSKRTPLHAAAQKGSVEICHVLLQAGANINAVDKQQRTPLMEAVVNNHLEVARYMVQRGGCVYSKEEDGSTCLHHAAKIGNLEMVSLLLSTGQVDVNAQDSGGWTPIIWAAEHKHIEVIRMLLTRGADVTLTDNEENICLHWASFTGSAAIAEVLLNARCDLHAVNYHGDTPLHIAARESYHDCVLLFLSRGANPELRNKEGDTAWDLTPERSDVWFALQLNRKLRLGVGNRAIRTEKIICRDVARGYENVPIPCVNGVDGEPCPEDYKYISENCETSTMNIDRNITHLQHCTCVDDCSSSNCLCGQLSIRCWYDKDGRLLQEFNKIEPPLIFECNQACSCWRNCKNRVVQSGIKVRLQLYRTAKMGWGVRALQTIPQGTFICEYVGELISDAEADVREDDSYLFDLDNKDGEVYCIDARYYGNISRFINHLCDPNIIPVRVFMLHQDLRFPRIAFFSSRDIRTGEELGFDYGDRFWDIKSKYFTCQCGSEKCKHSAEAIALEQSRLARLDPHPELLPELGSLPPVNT

| SMILES | Potency | activity, negative = inhibition |
| --- | --- | --- |
| COc1ccccc1NC(=O)Nc1nc(CC(=O)N2CCN(c3ccccc3OC)CC2)cs1 | inconclusive: 31.6 µM [inhibitor, full curve] |  |
| COc1ccc(NC(=O)C2CSC3c4ccccc4C(=O)N23)cc1 (stereo not drawn) | active: 28.2 µM |  |
| CCOC(=O)c1c(NC(=O)Cn2nc(C(F)F)cc2C(F)F)sc(C)c1C | inconclusive: 31.6 µM [inhibitor, partial curve, poor fit] |  |
| Cc1cc(S(=O)(=O)N2CCCCCC2)c(Cl)cc1Cl | inactive |  |
| Cc1ccc(-c2n[nH]c(=S)nc2-c2ccc(C)cc2)cc1 | inconclusive: 89.1 µM [inhibitor, single point] |  |
| Nc1ccc2nc3c(c(Cl)c2c1)CCCC3 |  | inconclusive: -58% [inhibitor] [at 12.7 µM] |
| O=C(NCC(c1cccs1)N1CCOCC1)c1ccc(Br)o1 (stereo not drawn) | inconclusive: 25.1 µM [inhibitor, single point] |  |
| Cc1ccc(C)c(NC(=O)C2CCN(S(=O)(=O)c3c(C)noc3/C=C/c3cccs3)CC2)c1 | inconclusive: 35.5 µM [inhibitor, single point] |  |
| CN(Cc1ccncn1)C(=O)CC1C(=O)NCCN1Cc1cccc(Oc2ccccc2)c1 (stereo not drawn) | inconclusive: 50.1 µM [inhibitor, partial curve] |  |
| O=C1C2=C(c3ccccc31)[N+](=O)C1CCCCC1N2[O-] (stereo not drawn) |  | inconclusive: -105% [inhibitor] |
| O=C(/C=C/c1ccc(OCCCF)cc1)N1CCOCC1 | inactive |  |
| Cc1nc(SCn2nnc3ccccc3c2=O)nc(C)c1C | inactive |  |
| Cc1cccc(Nc2nnc(SC/C(O)=C(\C#N)c3nc4ccccc4[nH]3)s2)c1C | inconclusive: 25.1 µM [inhibitor, single point] |  |
| O=C(CSc1nnc(Cc2ccccc2)o1)Nc1cccc(F)c1 | inactive |  |
| O=C(COC(=O)Cn1cnc2ccccc21)NCCC1=CCCCC1 | inconclusive: 1.58 µM [inhibitor, partial curve, poor fit] |  |
| O=c1[nH]c2ccc(Cl)cc2c(-c2ccccc2)c1SC(=S)N1CCOCC1 |  | inconclusive: -65.6% [inhibitor] |
| CCN(CC)CCn1c(=S)[nH]c2cc(Cl)ccc2c1=O | inconclusive: 35.5 µM [inhibitor, partial curve, poor fit] |  |
| Cc1nn(-c2ccccc2)c(N)c1N=Nc1cccnc1 | inconclusive: 28.2 µM [inhibitor, partial curve, poor fit] |  |
| CC(C)(C)c1cc(CN2CCCCC2)cc(C(C)(C)C)c1O | inconclusive: 2.51 µM [inhibitor, partial curve, poor fit] |  |
| COc1ccc(CCNC(=O)CSc2nnnn2Cc2ccc3c(c2)OCO3)cc1OC | inactive |  |
| O=C(N/N=C/c1cccc(O)c1)c1ccc(COc2ccccc2Br)cc1 | inconclusive: 39.8 µM [inhibitor, single point] |  |
| CCc1n[nH]c(=S)n1/N=C/c1c[nH]c2ccc(Br)cc12 | active: 8.91 µM |  |

| SMILES | Potency | activity, negative = inhibition |
| --- | --- | --- |
| CN1CCN(c2nc(-c3ccc(Br)cc3)nnc2-c2ccccc2)CC1 | inconclusive: 50.1 µM [inhibitor, partial curve, poor fit] |  |
| Cc1ccc2c(cnn2C(=O)CCC(=O)NC2CCCCC2)c1 | inconclusive: 89.1 µM [inhibitor, single point] |  |
| CCc1ccc2c(c1)cc(C)c1nnc(SCC(=O)Nc3cc(OC)c(OC)cc3C(=O)O)n12 | inactive |  |
| Cc1cc(N2C(=O)C(O)=C(C(=O)c3ccco3)C2c2cccc(O)c2)no1 (stereo not drawn) | inconclusive: 79.4 µM [inhibitor, single point] |  |
| COc1cccc(CNC(=O)N[C@@H](CC(C)C)C(=O)O)c1 | inconclusive: 89.1 µM [inhibitor, single point] |  |
| NC(=O)c1ccc(-n2nnnc2SCC(=O)Nc2ccccc2)cc1 | inconclusive: 89.1 µM [inhibitor, single point] |  |
| Cc1ccc(CNC(=O)CCOc2ccc(C(C)(C)C)cc2)cc1 | inconclusive: 79.4 µM [inhibitor, single point] |  |
| COC(=O)CNC(=O)C(NC(=O)c1ccc(Cl)cc1)C(C)C (stereo not drawn) | inconclusive: 56.2 µM [inhibitor, partial curve, poor fit] |  |
| c1ccc2c(c1)Sc1ccccc1N2CCN1CCCC1 |  | inactive: -40.8% [at 12.7 µM] |
| COC(=O)C1(C)NC(c2ccc(O)cc2)C2C(=O)N(c3ccccc3)C(=O)C21 (stereo not drawn) | inconclusive: 89.1 µM [inhibitor, single point] |  |
| COCCn1c(C)cc(O)c(C(c2ccccc2OC)N2CCN(c3ccccc3)CC2)c1=O (stereo not drawn) | inconclusive: 39.8 µM [inhibitor, partial curve, poor fit] |  |
| CCOC(=O)c1cc2n(c1/N=C/N(C)C)-c1ccccc1C2=O | inconclusive: 89.1 µM [inhibitor, single point] |  |
| Cc1ccc2nc(NC(=O)COC(=O)c3ccc(Br)o3)sc2c1 | inconclusive: 1.58 µM [inhibitor, partial curve, poor fit] |  |
| O=C1CC(N2CCCCCC2)C(=O)N1c1ccc2c(c1)OCO2 (stereo not drawn) |  | inconclusive: -91.3% [inhibitor] |
| COc1ccc(S(=O)Cc2ccc(C(=O)NCc3cccc(OC)c3)o2)cc1 (stereo not drawn) | inconclusive: 50.1 µM [inhibitor, single point] |  |
| COc1cccc(OCc2cc(/C=N/Nc3ccc(C(=O)O)cc3)ccc2OC)c1 | inconclusive: 56.2 µM [inhibitor, partial curve, poor fit] |  |
| C/C(=N\NC(=O)c1cccs1)C(C)(C)C | inactive |  |
| CCOc1ccccc1N1CCN(S(=O)(=O)c2cccc3nsnc23)CC1 | inconclusive: 8.91 µM [inhibitor, full curve] |  |
| O=C(O)CCC(=O)Nc1ccc(N=Nc2ccccc2)cc1 | inconclusive: 31.6 µM [inhibitor, partial curve, poor fit] |  |
| Oc1ccc(C(c2nnnn2CCc2ccccc2)N2CCN(c3nc4ccccc4s3)CC2)cc1 (stereo not drawn) |  | inconclusive: -69.5% [inhibitor] |
| CCCn1cnc2c(c1=O)c1nc3ccccc3nc1n2Cc1ccccc1OC | inactive |  |
